{"source": "the supplement of paper PMC8728848", "assay_in_all_cases": "glycan array binding signal (z-score within array); higher = stronger binding", "conditions_in_all_cases": "glycan notation: IUPAC condensed, linker removed", "key": {"[1]": {"molecular_target": "Fuc(a1-2)[Gal(a1-4)]Gal(b1-4)GlcNAc", "method_in_brief": "(§1)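 From the Consortium for Functional Glycomics database, 3228 arrays were curated, keeping only those whose protein sequence was available. Binding is given as a within-array Z-score averaged across arrays sharing a protein sequence and across linkers. Negative Z-scores can be read as non-binding.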"}, "[2]": {"molecular_target": "Fuc(a1-2)[GalNAc(a1-3)]Gal", "method_in_brief": "as §1"}, "[3]": {"molecular_target": "Fuc(a1-2)[GalNAc(a1-3)]Gal(b1-3)GalNAc(a1-3)[Fuc(a1-2)]Gal(b1-4)GlcNAc", "method_in_brief": "as §1"}, "[4]": {"molecular_target": "Fuc(a1-2)[GalNAc(a1-3)]Gal(b1-3)GalNAc(b1-3)Gal(a1-4)Gal(b1-4)Glc", "method_in_brief": "as §1"}, "[5]": {"molecular_target": "Fuc(a1-2)[GalNAc(a1-3)]Gal(b1-3)GlcNAc", "method_in_brief": "as §1"}, "[6]": {"molecular_target": "Fuc(a1-2)[GalNAc(a1-3)]Gal(b1-3)GlcNAc(b1-2)Man(a1-3)[Fuc(a1-2)[GalNAc(a1-3)]Gal(b1-3)GlcNAc(b1-2)Man(a1-6)]Man(b1-4)GlcNAc(b1-4)GlcNAc", "method_in_brief": "as §1"}, "[7]": {"molecular_target": "Fuc(a1-2)[GalNAc(a1-3)]Gal(b1-3)GlcNAc(b1-2)Man(a1-3)[Fuc(a1-2)[GalNAc(a1-3)]Gal(b1-3)GlcNAc(b1-2)Man(a1-6)]Man(b1-4)GlcNAc(b1-4)[Fuc(a1-6)]GlcNAc", "method_in_brief": "as §1"}, "[8]": {"molecular_target": "Fuc(a1-2)[GalNAc(a1-3)]Gal(b1-3)GlcNAc(b1-3)GalNAc", "method_in_brief": "as §1"}, "[9]": {"molecular_target": "Fuc(a1-2)[GalNAc(a1-3)]Gal(b1-3)GlcNAc(b1-6)GalNAc", "method_in_brief": "as §1"}, "[10]": {"molecular_target": "Fuc(a1-2)[GalNAc(a1-3)]Gal(b1-4)Glc", "method_in_brief": "as §1"}, "[11]": {"molecular_target": "Fuc(a1-2)[GalNAc(a1-3)]Gal(b1-4)GlcNAc", "method_in_brief": "as §1"}, "[12]": {"molecular_target": "Fuc(a1-2)[GalNAc(a1-3)]Gal(b1-4)GlcNAc(b1-2)Man", "method_in_brief": "as §1"}, "[13]": {"molecular_target": "Fuc(a1-2)[GalNAc(a1-3)]Gal(b1-4)GlcNAc(b1-2)Man(a1-3)[Fuc(a1-2)[GalNAc(a1-3)]Gal(b1-4)GlcNAc(b1-2)Man(a1-6)]Man(b1-4)GlcNAc(b1-4)GlcNAc", "method_in_brief": "as §1"}, "[14]": {"molecular_target": "Fuc(a1-2)[GalNAc(a1-3)]Gal(b1-4)GlcNAc(b1-2)Man(a1-3)[Fuc(a1-2)[GalNAc(a1-3)]Gal(b1-4)GlcNAc(b1-2)Man(a1-6)]Man(b1-4)GlcNAc(b1-4)[Fuc(a1-6)]GlcNAc", "method_in_brief": "as §1"}, "[15]": {"molecular_target": "Fuc(a1-2)[GalNAc(a1-3)]Gal(b1-4)GlcNAc(b1-3)Gal(b1-4)GlcNAc", "method_in_brief": "as §1"}, "[16]": {"molecular_target": "Fuc(a1-2)[GalNAc(a1-3)]Gal(b1-4)GlcNAc(b1-3)Gal(b1-4)GlcNAc(b1-3)Gal(b1-4)GlcNAc", "method_in_brief": "as §1"}, "[17]": {"molecular_target": "Fuc(a1-2)[GalNAc(a1-3)]Gal(b1-4)GlcNAc(b1-3)GalNAc", "method_in_brief": "as §1"}, "[18]": {"molecular_target": "Fuc(a1-2)[GalNAc(a1-3)]Gal(b1-4)GlcNAc(b1-3)[Fuc(a1-2)[GalNAc(a1-3)]Gal(b1-4)GlcNAc(b1-6)]GalNAc", "method_in_brief": "as §1"}, "[19]": {"molecular_target": "Fuc(a1-2)[GalNAc(a1-3)]Gal(b1-4)GlcNAc(b1-6)GalNAc", "method_in_brief": "as §1"}, "[20]": {"molecular_target": "Fuc(a1-2)[GalNAc(a1-3)]Gal(b1-4)[Fuc(a1-3)]GlcNAc", "method_in_brief": "as §1"}, "[21]": {"molecular_target": "Fuc(a1-2)[GalNAc(a1-3)]Gal(b1-4)[Fuc(a1-3)]GlcNAc(b1-3)GalNAc", "method_in_brief": "as §1"}, "[22]": {"molecular_target": "Fuc(a1-2)[GalNAc(a1-4)]Gal(b1-4)GlcNAc", "method_in_brief": "as §1"}, "[23]": {"molecular_target": "Fuc(a1-2)[GalNAc(b1-3)]Gal", "method_in_brief": "as §1"}, "[24]": {"molecular_target": "Fuc(a1-3)GlcNAc", "method_in_brief": "as §1"}, "[25]": {"molecular_target": "Fuc(a1-3)[Gal(b1-4)]Glc6S", "method_in_brief": "as §1"}, "[26]": {"molecular_target": "Fuc(a1-3)[Gal(b1-4)]GlcNAc", "method_in_brief": "as §1"}, "[27]": {"molecular_target": "Fuc(a1-3)[Gal(b1-4)]GlcNAc(b1-2)Man", "method_in_brief": "as §1"}, "[28]": {"molecular_target": "Fuc(a1-3)[Gal(b1-4)]GlcNAc(b1-2)Man(a1-3)[Fuc(a1-3)[Gal(b1-4)]GlcNAc(b1-2)Man(a1-6)]Man(b1-4)GlcNAc(b1-4)GlcNAc", "method_in_brief": "as §1"}, "[29]": {"molecular_target": "Fuc(a1-3)[Gal(b1-4)]GlcNAc(b1-2)Man(a1-3)[Fuc(a1-3)[Gal(b1-4)]GlcNAc(b1-2)Man(a1-6)]Man(b1-4)GlcNAc(b1-4)[Fuc(a1-6)]GlcNAc", "method_in_brief": "as §1"}, "[30]": {"molecular_target": "Fuc(a1-3)[Gal(b1-4)]GlcNAc(b1-3)Gal(b1-3)[Fuc(a1-4)]GlcNAc", "method_in_brief": "as §1"}, "[31]": {"molecular_target": "Fuc(a1-3)[Gal(b1-4)]GlcNAc(b1-3)Gal(b1-4)[Fuc(a1-3)]GlcNAc", "method_in_brief": "as §1"}, "[32]": {"molecular_target": "Fuc(a1-3)[Gal(b1-4)]GlcNAc(b1-3)Gal(b1-4)[Fuc(a1-3)]GlcNAc(b1-3)Gal(b1-4)[Fuc(a1-3)]GlcNAc", "method_in_brief": "as §1"}, "[33]": {"molecular_target": "Fuc(a1-3)[Gal(b1-4)]GlcNAc(b1-3)GalNAc", "method_in_brief": "as §1"}, "[34]": {"molecular_target": "Fuc(a1-3)[Gal(b1-4)]GlcNAc(b1-6)GalNAc", "method_in_brief": "as §1"}, "[35]": {"molecular_target": "Fuc(a1-3)[Gal(b1-4)]GlcNAc(b1-6)[Gal(b1-3)GlcNAc(b1-3)]Gal(b1-4)Glc", "method_in_brief": "as §1"}, "[36]": {"molecular_target": "Fuc(a1-3)[Gal(b1-4)]GlcNAc6S", "method_in_brief": "as §1"}, "[37]": {"molecular_target": "Fuc(a1-3)[Gal3S(b1-4)]Glc", "method_in_brief": "as §1"}, "[38]": {"molecular_target": "Fuc(a1-3)[Gal3S(b1-4)]GlcNAc", "method_in_brief": "as §1"}}, "note": "The other results are listed elsewhere or left out."}
{"binder": "PX9937A-bvu-521-23-521 (Bacteroides vulgatus) (protein) LDLAPEDYYGAGNFWKEASQPKAFMLGLHAQLRSYYDMFYTLGELRGGTQRVGTSSLNTSLNYADIRSQNISEDIPGISNWNGLYSPIMQVNHFIQEVENGCTFLDDATRSRYLGQAYGMRALYYFMLYRTFGGVPLITKVDILDGKPSADKFYVERATPEATMEFIKADINKSENYFGNNTSFDAYDWSRYATLMLKAEIYMWAAKVSITGFTATGATDLQTAKTALSGIIGHFELMDNFASIFSCDNKKNTEIIFAMPFIEGEASNDGGRFLYQDAVFLGQAYGRNGKVIEKDTLNLKGTGGVFRDEYTEDFWKTFKEGDSRRDATFMEYYMKNDNGTLSEFGCVMKKRIGTINSNDNRIYISDIPVYRYADALLMMAEIENGLNNPCASYINEVRKRAYGDTFEENKYTEGSYAENELAILQERDKEFVSEGKRWFDVLRMHDASGRSLVFSANANYPGTNPILGTEEAYKMLWPVNIGTLNVNPLLTQTPGYGKK", "values": [{"measurement": "glycan array binding signal (z-score)", "setting": "[1]", "value": 0.234}, {"measurement": "glycan array binding signal (z-score)", "setting": "[2]", "value": 0.084}, {"measurement": "glycan array binding signal (z-score)", "setting": "[3]", "value": -0.378}, {"measurement": "glycan array binding signal (z-score)", "setting": "[4]", "value": -0.572}, {"measurement": "glycan array binding signal (z-score)", "setting": "[5]", "value": -0.014}, {"measurement": "glycan array binding signal (z-score)", "setting": "[6]", "value": -0.384}, {"measurement": "glycan array binding signal (z-score)", "setting": "[7]", "value": -0.437}, {"measurement": "glycan array binding signal (z-score)", "setting": "[8]", "value": 0.96}, {"measurement": "glycan array binding signal (z-score)", "setting": "[9]", "value": -0.228}, {"measurement": "glycan array binding signal (z-score)", "setting": "[10]", "value": -0.677}, {"measurement": "glycan array binding signal (z-score)", "setting": "[11]", "value": -0.341}, {"measurement": "glycan array binding signal (z-score)", "setting": "[12]", "value": -0.33}, {"measurement": "glycan array binding signal (z-score)", "setting": "[13]", "value": 0.319}, {"measurement": "glycan array binding signal (z-score)", "setting": "[14]", "value": 0.053}, {"measurement": "glycan array binding signal (z-score)", "setting": "[15]", "value": -0.273}, {"measurement": "glycan array binding signal (z-score)", "setting": "[16]", "value": 2.07}, {"measurement": "glycan array binding signal (z-score)", "setting": "[17]", "value": -0.185}, {"measurement": "glycan array binding signal (z-score)", "setting": "[18]", "value": -0.334}, {"measurement": "glycan array binding signal (z-score)", "setting": "[19]", "value": 0.027}, {"measurement": "glycan array binding signal (z-score)", "setting": "[20]", "value": -0.498}, {"measurement": "glycan array binding signal (z-score)", "setting": "[21]", "value": 0.824}, {"measurement": "glycan array binding signal (z-score)", "setting": "[22]", "value": -0.319}, {"measurement": "glycan array binding signal (z-score)", "setting": "[23]", "value": -0.399}, {"measurement": "glycan array binding signal (z-score)", "setting": "[24]", "value": -0.222}, {"measurement": "glycan array binding signal (z-score)", "setting": "[25]", "value": 0.367}, {"measurement": "glycan array binding signal (z-score)", "setting": "[26]", "value": -0.206}, {"measurement": "glycan array binding signal (z-score)", "setting": "[27]", "value": -0.256}, {"measurement": "glycan array binding signal (z-score)", "setting": "[28]", "value": -0.425}, {"measurement": "glycan array binding signal (z-score)", "setting": "[29]", "value": -0.541}, {"measurement": "glycan array binding signal (z-score)", "setting": "[30]", "value": -0.182}, {"measurement": "glycan array binding signal (z-score)", "setting": "[31]", "value": -0.198}, {"measurement": "glycan array binding signal (z-score)", "setting": "[32]", "value": -0.455}, {"measurement": "glycan array binding signal (z-score)", "setting": "[33]", "value": 0.286}, {"measurement": "glycan array binding signal (z-score)", "setting": "[34]", "value": -0.27}, {"measurement": "glycan array binding signal (z-score)", "setting": "[35]", "value": -0.182}, {"measurement": "glycan array binding signal (z-score)", "setting": "[36]", "value": 1.13}, {"measurement": "glycan array binding signal (z-score)", "setting": "[37]", "value": -0.49}, {"measurement": "glycan array binding signal (z-score)", "setting": "[38]", "value": -0.333}]}
